# The other results are listed elsewhere or left out. These are further read-outs of the screen, such as a control signal, another cell line or another target. No call is given for them. For part of these data: Compounds called inactive in the main read-out are mostly missing here. Words in brackets tell the shape of the fitted curve; partial curves, single points and poor fits give uncertain potencies.
# Columns and labels:
# [1] = qHTS drug screen for cell cycle checkpoint inhibitors in PARPi-resistant BRCA-mutant ovarian cancer cell lines. (AID 1963452); conditions: PEO1/OlaR viability, CellTiter-Glo luminescence, 96 h
# In short: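 PEO1, PEO4 and PEO1/OlaR ovarian cancer cells, 600 per well, exposed 96 h at 37C to a dilution series. Viability read by CellTiter-Glo luminescence, normalized to DMSO and empty wells; activity summarized as Z-AUC.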
# [2] = qHTS for identification of novel therapeutic agents for treatment of microphthalmiaassociated transcription factor (MiT) renal cell carcinoma (RCC) (AID 1963991); conditions: CellTiter-Glo, 48 h; for z-score: stronger effect = lower value
# In short: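 Viability of three TFE3-fusion renal carcinoma lines measured by CellTiter-Glo after 48 h treatment with each of 1912 compounds at 11 concentrations. Responses scaled between DMSO (100%) and empty wells (0%) before curve fitting.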
# [3] = measured here: PEO1 parental viability
# [4] = TFE3-RCC UOK109 viability, measured here: UOK109 Z-AUC
# [5] = TFE3-RCC viability, measured here: UOK124 Z-AUC
# [6] = TFE3-RCC viability, measured here: UOK124 cell viability
# [7] = TFE3-RCC viability, measured here: UOK145 Z-AUC
# [8] = TFE3-RCC viability, measured here: UOK145 cell viability
# Tags give direction and shape of the fitted curve.
SMILES,"AC50 [1, 3]",AC50 ([1]; measured here: PEO4 viability),"z-score [2, 4]","z-score [2, 5]","AC50 [2, 6]","z-score [2, 7]","AC50 [2, 8]"
Cn1cc(-c2ccncc2)c(-c2ccc(OCc3ccc4ccccc4n3)cc2)n1,"11 µM [falling, partial curve]","19.5 µM [falling, single point]",0.528,0.55,"9.35 µM [falling, partial curve]",0.502,–
COc1cc2c(Nc3ccc(NC(=O)c4ccccc4)cc3)ncnc2cc1OCCCN1CCOCC1,"17.4 µM [falling, single point]","9.77 µM [falling, partial curve]",0.329,-0.139,"18.7 µM [falling, partial curve]",-0.452,"20.9 µM [falling, partial curve]"
Cc1cc(Nc2nc(N[C@@H](C)c3ncc(F)cn3)ncc2Cl)n[nH]1,"4.36 µM [falling, full curve]","2.19 µM [falling, full curve]",1.4,-0.207,"18.7 µM [falling, partial curve, poor fit]",-0.214,"29.6 µM [falling, single point]"
OC[C@H](Cc1ccccc1)Nc1nc(Oc2ccc3c(c2)CCC3)nc2c1ncn2Cc1ccc(-c2ccccc2)cc1,"4.9 µM [falling, full curve, poor fit]","15.5 µM [falling, partial curve, poor fit]",0.0101,-0.0635,"11.8 µM [falling, partial curve, poor fit]",-0.0791,"5.9 µM [falling, partial curve, poor fit]"
